Experimental data taken from the supplement of paper PMC8728848.
This is one part of the list.

What was measured:
Test in all cases: glycan array binding signal (z-score within array); higher = stronger binding
Conditions in all cases: glycan notation: IUPAC condensed, linker removed
[1] = target: Gal(b1-4)GlcNAc(b1-3)Gal(b1-4)[Fuc(a1-3)]GlcNAc(b1-3)Gal(b1-4)[Fuc(a1-3)]GlcNAc
Summary of the method: (§1)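 The Consortium for Functional Glycomics database supplied 3228 glycan arrays, of which those lacking an available protein sequence were dropped. The binding signal, a within-array Z-score, was averaged across arrays of the same protein sequence and across linkers. Negative scores can be read as non-binding.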

[2] = target: Gal(b1-4)GlcNAc(b1-3)GalNAc
Summary of the method: as §1

[3] = target: Gal(b1-4)GlcNAc(b1-3)[Fuc(a1-3)GlcNAc(b1-6)]Gal(b1-4)Glc
Summary of the method: as §1

[4] = target: Gal(b1-4)GlcNAc(b1-3)[Gal(b1-4)GlcNAc(b1-6)]Gal(b1-4)GlcNAc
Summary of the method: as §1

[5] = target: Gal(b1-4)GlcNAc(b1-3)[Gal(b1-4)GlcNAc(b1-6)]GalNAc
Summary of the method: as §1

[6] = target: Gal(b1-4)GlcNAc(b1-3)[GlcNAc(b1-6)]Gal(b1-4)GlcNAc
Summary of the method: as §1

[7] = target: Gal(b1-4)GlcNAc(b1-6)Gal(b1-4)GlcNAc
Summary of the method: as §1

[8] = target: Gal(b1-4)GlcNAc(b1-6)GalNAc
Summary of the method: as §1

[9] = target: Gal(b1-4)GlcNAc(b1-6)[Gal(b1-3)]GalNAc
Summary of the method: as §1

[10] = target: Gal(b1-4)GlcNAc(b1-6)[Gal(b1-4)GlcNAc(b1-3)]GalNAc
Summary of the method: as §1

[11] = target: Gal(b1-4)GlcNAc6P
Summary of the method: as §1

[12] = target: Gal(b1-6)Gal
Summary of the method: as §1

[13] = target: Gal3S(b1-3)GalNAc
Summary of the method: as §1

[14] = target: Gal3S(b1-3)GlcNAc
Summary of the method: as §1

[15] = target: Gal3S(b1-3)[Fuc(a1-4)]GlcNAc
Summary of the method: as §1

[16] = target: Gal3S(b1-4)Glc
Summary of the method: as §1

[17] = target: Gal3S(b1-4)Glc6S
Summary of the method: as §1

[18] = target: Gal3S(b1-4)GlcNAc
Summary of the method: as §1

[19] = target: Gal3S(b1-4)GlcNAc6S
Summary of the method: as §1

[20] = target: Gal3S(b1-4)[Fuc(a1-3)]Glc
Summary of the method: as §1

[21] = target: Gal3S(b1-4)[Fuc(a1-3)]Glc6S
Summary of the method: as §1

[22] = target: Gal3S(b1-4)[Fuc(a1-3)]GlcNAc
Summary of the method: as §1

[23] = target: Gal3S(b1-4)[Fuc(a1-3)]GlcNAc6S
Summary of the method: as §1

[24] = target: Gal3S4S(b1-4)GlcNAc
Summary of the method: as §1

[25] = target: Gal3S6S(b1-4)GlcNAc
Summary of the method: as §1

[26] = target: Gal3S6S(b1-4)GlcNAc6S
Summary of the method: as §1

[27] = target: Gal4S(b1-4)GlcNAc
Summary of the method: as §1

[28] = target: Gal4S6S(b1-4)GlcNAc
Summary of the method: as §1

[29] = target: Gal6P(b1-4)GlcNAc
Summary of the method: as §1

[30] = target: Gal6S(b1-3)GlcNAc
Summary of the method: as §1

[31] = target: Gal6S(b1-3)GlcNAc6S
Summary of the method: as §1

[32] = target: Gal6S(b1-4)Glc
Summary of the method: as §1

[33] = target: Gal6S(b1-4)Glc6S
Summary of the method: as §1

[34] = target: Gal6S(b1-4)GlcNAc
Summary of the method: as §1

[35] = target: Gal6S(b1-4)GlcNAc6S
Summary of the method: as §1

[36] = target: GalNAc(a1-3)Gal
Summary of the method: as §1

[37] = target: GalNAc(a1-3)GalNAc
Summary of the method: as §1

[38] = target: GalNAc(a1-3)GalNAc(a1-3)Gal(a1-4)Gal(b1-4)GlcNAc
Summary of the method: as §1

[39] = target: GalNAc(a1-3)GalNAc(b1-3)Gal(a1-4)Gal(b1-4)Glc
Summary of the method: as §1

[40] = target: GalNAc(a1-3)GalNAc(b1-3)Gal(a1-4)Gal(b1-4)GlcNAc
Summary of the method: as §1

[41] = target: GalNAc(b1-3)Gal
Summary of the method: as §1

[42] = target: GalNAc(b1-3)Gal(a1-4)Gal(b1-4)GlcNAc
Summary of the method: as §1

[43] = target: GalNAc(b1-3)Gal(a1-4)Gal(b1-4)GlcNAc(b1-3)Gal(b1-4)Glc
Summary of the method: as §1

[44] = target: GalNAc(b1-3)Gal(a1-6)Gal(b1-4)Glc
Summary of the method: as §1

[45] = target: GalNAc(b1-3)GalNAc
Summary of the method: as §1

[46] = target: GalNAc(b1-3)GlcNAc
Summary of the method: as §1

[47] = target: GalNAc(b1-4)Gal(b1-4)Glc
Summary of the method: as §1

[48] = target: GalNAc(b1-4)GlcNAc
Summary of the method: as §1

[49] = target: GalNAc(b1-4)GlcNAc(b1-2)Man
Summary of the method: as §1

[50] = target: GalNAc(b1-4)GlcNAc(b1-2)Man(a1-3)[GalNAc(b1-4)GlcNAc(b1-2)Man(a1-6)]Man(b1-4)GlcNAc(b1-4)GlcNAc
Summary of the method: as §1

[51] = target: GalNAc(b1-4)GlcNAc(b1-3)GalNAc(b1-4)GlcNAc
Summary of the method: as §1

[52] = target: GalNAc(b1-4)GlcNAc6S
Summary of the method: as §1

[53] = target: GalNAc(b1-6)GalNAc
Summary of the method: as §1

[54] = target: GalNAc3S(b1-4)GlcNAc
Summary of the method: as §1

[55] = target: GalNAc3S(b1-4)GlcNAc3S
Summary of the method: as §1

[56] = target: GalNAc3S(b1-4)[Fuc(a1-3)]GlcNAc
Summary of the method: as §1

[57] = target: GalNAc4S6S(b1-4)GlcNAc
Summary of the method: as §1

[58] = target: GalNAc6S(b1-4)GlcNAc
Summary of the method: as §1

[59] = target: Glc(a1-4)Glc
Summary of the method: as §1

[60] = target: Glc(a1-4)Glc(a1-4)Glc(a1-4)Glc
Summary of the method: as §1

B1: Siglec-F (Mus musculus), Q920G3 (protein)
chain: MRWAWLLPLLWAGCLATDGYSLSVTGSVTVQEGLCVFVACQVQYPNSKGPVFGYWFREGANIFSGSPVATNDPQRSVLKEAQGRFYLMGKENSHNCSLDIRDAQKIDTGTYFFRLDGSVKYSFQKSMLSVLVIALTEVPNIQVTSTLVSGNSTKLLCSVPWACEQGTPPIFSWMSSALTSLGHRTTLSSELNLTPRPQDNGTNLTCQVNLPGTGVTVERTQQLSVIYAPQKMTIRVSWGDDTGTKVLQSGASLQIQEGESLSLVCMADSNPPAVLSWERPTQKPFQLSTPAELQLPRAELEDQGKYICQAQNSQGAQTASVSLSIRSLLQLLGPSCSFEGQGLHCSCSSRAWPAPSLRWRLGEGVLEGNSSNGSFTVKSSSAGQWANSSLILSMEFSSNHRLSCEAWSDNRVQRATILLVSGPKVSQAGKSETSRGTVLGAIWGAGLMALLAVCLCLIFFTVKVLRKKSALKVAATKGNHLAKNPASTINSASITSSNIALGYPIQGHLNEPGSQTQKEQPPLATVPDTQKDEPELHYASLSFQGPMPPKPQNTEAMKSVYTEIKIHKC
glycan array binding signal (z-score) [1]: -0.11
glycan array binding signal (z-score) [2]: -0.123
glycan array binding signal (z-score) [3]: -0.166
glycan array binding signal (z-score) [4]: -0.06
glycan array binding signal (z-score) [5]: -0.09
glycan array binding signal (z-score) [6]: -0.111
glycan array binding signal (z-score) [7]: -0.096
glycan array binding signal (z-score) [8]: -0.103
glycan array binding signal (z-score) [9]: -0.124
glycan array binding signal (z-score) [10]: -0.025
glycan array binding signal (z-score) [11]: -0.111
glycan array binding signal (z-score) [12]: -0.116
glycan array binding signal (z-score) [13]: -0.121
glycan array binding signal (z-score) [14]: -0.108
glycan array binding signal (z-score) [15]: -0.133
glycan array binding signal (z-score) [16]: -0.121
glycan array binding signal (z-score) [17]: -0.097
glycan array binding signal (z-score) [18]: -0.125
glycan array binding signal (z-score) [19]: -0.09
glycan array binding signal (z-score) [20]: -0.09
glycan array binding signal (z-score) [21]: 0.156
glycan array binding signal (z-score) [22]: -0.142
glycan array binding signal (z-score) [23]: -0.142
glycan array binding signal (z-score) [24]: -0.113
glycan array binding signal (z-score) [25]: -0.115
glycan array binding signal (z-score) [26]: -0.104
glycan array binding signal (z-score) [27]: -0.113
glycan array binding signal (z-score) [28]: -0.113
glycan array binding signal (z-score) [29]: -0.144
glycan array binding signal (z-score) [30]: -0.099
glycan array binding signal (z-score) [31]: -0.117
glycan array binding signal (z-score) [32]: -0.101
glycan array binding signal (z-score) [33]: -0.11
glycan array binding signal (z-score) [34]: -0.095
glycan array binding signal (z-score) [35]: -0.104
glycan array binding signal (z-score) [36]: -0.051
glycan array binding signal (z-score) [37]: -0.129
glycan array binding signal (z-score) [38]: -0.178
glycan array binding signal (z-score) [39]: -0.124
glycan array binding signal (z-score) [40]: -0.103
glycan array binding signal (z-score) [41]: -0.111
glycan array binding signal (z-score) [42]: -0.004
glycan array binding signal (z-score) [43]: -0.13
glycan array binding signal (z-score) [44]: -0.124
glycan array binding signal (z-score) [45]: -0.126
glycan array binding signal (z-score) [46]: -0.154
glycan array binding signal (z-score) [47]: -0.099
glycan array binding signal (z-score) [48]: -0.078
glycan array binding signal (z-score) [49]: -0.008
glycan array binding signal (z-score) [50]: -0.024
glycan array binding signal (z-score) [51]: -0.104
glycan array binding signal (z-score) [52]: -0.135
glycan array binding signal (z-score) [53]: -0.11
glycan array binding signal (z-score) [54]: -0.135
glycan array binding signal (z-score) [55]: -0.159
glycan array binding signal (z-score) [56]: -0.002
glycan array binding signal (z-score) [57]: -0.162
glycan array binding signal (z-score) [58]: -0.126
glycan array binding signal (z-score) [59]: -0.123
glycan array binding signal (z-score) [60]: -0.094
